In all, about 110,000 compounds were measured (“z-score”: median about -0.1, highest 2% from about 2 on). The list shows a part of the results. Active and inactive are the calls of the source.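 How the source made its calls: active means z-score in the third read window above 3 or below -3; inactive means the rest.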
What follows are compounds tested against Metabotropic glutamate receptor 8 (Rattus norvegicus) (UniProt P70579) (assay: mGluR8 Gi/Go-coupled signaling modulation – cell-based, rat, thallium flux, HTS, primary screen (AID 488969)). Conditions: HEK293 rat mGluR8, GIRK (G protein-gated inwardly rectifying potassium channel) thallium flux, FluoZin2; at 10 µM; stronger effect = higher value; submaximal glutamate (EC20) added with thallium.
Sequence of UniProt P70579 (P70579 whole entry, looked up): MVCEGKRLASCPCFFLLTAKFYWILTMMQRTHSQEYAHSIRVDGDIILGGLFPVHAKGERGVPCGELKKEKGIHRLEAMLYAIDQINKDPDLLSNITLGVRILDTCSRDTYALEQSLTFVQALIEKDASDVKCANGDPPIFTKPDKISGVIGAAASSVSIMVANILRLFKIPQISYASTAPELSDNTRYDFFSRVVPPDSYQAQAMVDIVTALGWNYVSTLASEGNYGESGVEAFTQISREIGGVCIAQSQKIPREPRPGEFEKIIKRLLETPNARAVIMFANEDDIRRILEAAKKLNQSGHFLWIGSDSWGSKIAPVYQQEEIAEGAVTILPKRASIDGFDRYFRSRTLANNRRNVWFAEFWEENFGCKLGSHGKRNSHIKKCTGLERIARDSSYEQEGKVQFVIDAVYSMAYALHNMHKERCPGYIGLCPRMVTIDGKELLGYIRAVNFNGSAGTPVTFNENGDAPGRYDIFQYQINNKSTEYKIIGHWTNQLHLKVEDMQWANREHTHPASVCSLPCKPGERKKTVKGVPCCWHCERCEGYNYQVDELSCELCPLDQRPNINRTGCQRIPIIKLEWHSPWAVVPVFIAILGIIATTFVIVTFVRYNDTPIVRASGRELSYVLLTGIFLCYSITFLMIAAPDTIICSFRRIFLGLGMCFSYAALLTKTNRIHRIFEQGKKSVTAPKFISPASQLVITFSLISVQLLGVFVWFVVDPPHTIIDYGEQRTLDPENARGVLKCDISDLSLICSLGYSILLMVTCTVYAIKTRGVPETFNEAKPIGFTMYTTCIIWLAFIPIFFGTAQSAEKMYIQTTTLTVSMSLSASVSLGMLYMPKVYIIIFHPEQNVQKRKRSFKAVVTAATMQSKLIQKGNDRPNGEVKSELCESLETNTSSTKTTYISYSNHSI

Row | SMILES | z-score
1 | Cc1nc(SCC(=O)NCC(F)(F)F)c2c(-c3cccs3)csc2n1 | 0.183
2 | O=C(NC(=S)Nc1ccccc1N1CCCC1)c1ccc([N+](=O)[O-])cc1 | active: 14.4
3 | CCCCn1c(-c2csc3ccccc23)n[nH]c1=S | 2.3
4 | N#C/C(=N\Nc1ccccc1Cl)C(=O)c1ccccc1 | -1.27
5 | CCc1ccc(C(C)NC(=O)/C(C#N)=C\c2cn[nH]c2-c2ccccc2)cc1 (stereo not given) | -0.736
6 | Cc1ccc(S(=O)(=O)N(C)C)cc1NC(=O)c1cncc(Br)c1 | 0.0137
7 | O=C(CNC(=O)c1ccc2c(c1)OCO2)N/N=C(Br)/C=C/c1ccccc1 | -0.492
8 | COc1ccccc1OCC(=O)Nc1ccc(C(N)=O)cc1 | -0.194
9 | CCCN(CCC)CCCNC(=O)C1c2cc(OC)c(OC)cc2C(=O)N(C)C1c1cccs1 (stereo not given) | -0.232
10 | C=CCONC(=O)c1cc(OCC(F)(F)F)ccc1OCC(F)(F)F | -0.0898
11 | CC1(c2cccc([N+](=O)[O-])c2)CC(C)(C)N(C(=O)c2ccccc2)c2ccccc21 (stereo not given) | 0.0506
12 | Cc1nn(-c2ccccc2)c(Cl)c1C(=O)NCC(=O)O | -0.0811
13 | c1ccc(-c2nnc(-c3ccccc3)o2)cc1 | 0.0752
14 | Cn1c(Sc2ccc(Cl)cc2)c(C=O)c2ccccc21 | -0.38
15 | CCOC(=O)CNC(=O)CSc1nnnn1-c1ccc(C)c(C)c1 | -0.858
16 | COc1ccc(N/C(=N\c2nc(C)cc(C)n2)NC(C)=O)cc1OC | 0.0664
17 | CC(C)Cn1c(SC(C)C(=O)Nc2ccc3c(c2)OCCO3)nc2ccccc2c1=O (stereo not given) | 0.193
18 | CCN(CC)S(=O)(=O)c1cc(F)ccc1OC | 0.00236
19 | CC(C)CC(=O)Nc1ccc(C(=O)NNC(=O)C(c2ccccc2)c2ccccc2)cc1 | -0.258
20 | Cc1c(Cc2ccccc2)c(=O)oc2cc(OC(=O)c3ccccc3)ccc12 | -0.135
21 | Cc1cccc(CN2CCN(CC(=O)NCc3cccs3)C2=O)c1 | 0.281
22 | c1ccc(Nc2cc(-c3ccccc3)nc3ncnn23)cc1 | 0.00169
23 | O=C(CCC1CCCCC1)NCc1cccs1 | -0.322
24 | COc1ccccc1NC(=S)NCCSc1ccc(Cl)cc1 | 0.711
25 | CCC(=O)Nc1nnc(-c2ccco2)o1 | 2.14
26 | O=c1ccc2cc(S(=O)(=O)N3CCN(c4cc(Cl)ccc4Cl)CC3)ccc2o1 | 0.116
27 | CCc1ccccc1NC(=S)N(CCCN1CCOCC1)Cc1ccccn1 | -0.307
28 | CCc1nnc(NC(=O)CSc2nnc(C)n2-c2ccc(C)cc2)s1 | 0.368

Row | SMILES | z-score
29 | COc1ccc2nc(NC(=O)C3=NN(c4ccccc4)C(=O)CC3)sc2c1 | -0.434
30 | O=C(OC1CCOC1=O)c1cncc(Br)c1 (stereo not given) | -0.105
31 | C/C(=N/NC(=O)C1COc2ccccc2O1)c1ccco1 (stereo not given) | -0.0484
32 | COc1cccc(C2C3(C#N)C(N)=NC(OC)(OC)C23C#N)c1 (stereo not given) | 1.02
33 | COC(=O)c1cccc(NC(=O)CN2CCN(c3ccc(OC)cc3)CC2)c1 | -0.368
34 | NC(=NC1CCCCC1)c1ccc([N+](=O)[O-])cc1 | 0.992
35 | Cc1ccccc1N1C(=O)CC(N2CCC(C(N)=O)CC2)C1=O (stereo not given) | 1.02
36 | N/C(=N/O)c1nc(N2CCCCC2)nc(N2CCCCC2)n1 | -0.109
37 | CC(C)c1ccc(-c2c(C#N)c(N)nc(SCC(=O)N3CCCCC3)c2C#N)cc1 | -0.019
38 | COc1ccccc1CNC(=O)CN1CCN(Cc2ccc(Cl)cc2)C1=O | -0.0941
39 | COc1cc(-c2cc(N)n(S(=O)(=O)c3ccccc3)n2)cc(OC)c1OC | -0.36
40 | CC(=O)Nc1ccc(OC(=O)c2cc([N+](=O)[O-])ccc2Cl)cc1 | -0.251
41 | Cc1ccc(C)c(C(=O)COC(=O)c2ccccc2N2C(=O)C3C4CCC(C4)C3C2=O)c1 (stereo not given) | -0.0577
42 | CC(O)Cn1c(=O)c2c(nc(Br)n2Cc2ccccc2)n(C)c1=O (stereo not given) | -0.215
43 | CC(C)CNC(=S)N1CCN(C)CC1 | -0.258
44 | COc1ccc(NC(=O)CN(C)S(=O)(=O)c2ccc(Cl)cc2)c([N+](=O)[O-])c1 | -0.00271
45 | CC(C)NS(=O)(=O)c1ccc(CCC(=O)N2CCOCC2)cc1 | 0.356
46 | Cc1ccc(/C=C(\C#N)C(=O)Nc2cccc3ncccc23)o1 | -0.0932
47 | C=CCNc1ncnc2c1[nH]c1ccccc12 | 1.42
48 | c1ccc(Oc2nc3ccccc3n3cccc23)cc1 | 0.019
49 | Cc1ccc(CN(C(=O)c2ccco2)C(C(=O)NC2CCCC2)c2ccc(N3CCOCC3)cc2)cc1 (stereo not given) | 0.124
50 | Cc1ccccc1OCCCC(=O)Nc1ccccc1C(F)(F)F | -0.0847
51 | Cc1cccc(C)c1NC(=O)COC(=O)c1c2c(nc3ccccc13)/C(=C\c1ccc3c(c1)OCO3)CCC2 | -0.139
52 | CC1=CC(=O)C(C(C)C)=C/C1=N\OC(=O)c1cccc2nc(C)oc12 | -0.343
53 | Cc1ccccc1NC(=O)c1sc(NC(=O)COc2ccccc2)c(C#N)c1C | -0.306
54 | COc1nccnc1NS(=O)(=O)c1ccc(N=Cc2c(C)[nH]n(-c3ccc(Cl)cc3)c2=O)cc1 | -0.564
55 | Cc1[nH]c2ccccc2c1/C=N/n1cnnc1 | 0.647

From PubChem BioAssay AID488969 (Vanderbilt High Throughput Screening Facility, 2010)
